In the supplement of paper PMC11417369:
The list shows a part of the results.

What follows are sequences tested on PfHDP1 homeodomain (GST-tagged) (assay: gcPBM binding intensity (ln(normalized median fluorescence intensity)); higher = stronger DNA binding).
Method in brief: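 After 1 h on an Agilent 4 × 180k array of primer-extended double-stranded 36-bp intergenic genomic probes and negative controls, bound GST-tagged P. falciparum DNA-binding domains were detected with Alexa488 anti-GST antibody and scanned at 488 nm. The domains had been expressed in E. coli, and binding took place in 1× PBS with 1% milk, 0.2 mg/ml BSA, 0.5% salmon testes DNA and 0.03% Triton X-100. Binding intensity is the highest Masliner-normalised natural-log median intensity across replicate spots of either probe orientation.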

Sequence	gcPBM binding intensity (ln)
AGATGGAGAAAGTTATGTACACATATATAAATATGT [XGTACX_site6150]	6.29
CCCATGTAATGAACATGTACATAATAATTTATAAAT [XGTACX_site8687]	7.31
ATATATATATATATGTGTACATATGTATATATATCT [XGTACX_site2930]	9.27
TATATACATATGTGATGTACATTTTTTGTAATATAA [XGTACX_site6985]	6.61
TAACACATATATTGTTGTACATTCAAACTGAAAAAT [XGTACX_site5565]	6.62
TTTTTTTTATTAAAAAGTACTAAACAAATTATATAT [XGTACX_site121]	6.37
TTGTGAAATAAAATTTGTACACACATATATATATAT [XGTACX_site1078]	9.17
AAAATTTAAAGCATGACACACAATTATATTATGTGC [CACACA_site3435]	5.96
TTCTTTTCTTTAGTAGAATGTAAAAAATATAATCTT [XGTACX_negctrl_site290]	6.03
TTTTTTTTGGAATTCACACAAATATAACATGGGTAT [CACACA_site5185]	6.57
TACACAAGGGGAAAAATATATATATATATATATATA [TGCATGCA_negctrl_site217]	9.34
TAAAAGTATATATATACACACATAAATATATATGTA [CACACA_site663]	6.71
TAAAAAATTTTATATTCACACACATATATATATATA [CACACA_site8109]	9.22
TTTTCATTCAATTATATTTATATATATATATATATA [GTGCAC_negctrl_site538]	9.21
CAAAATATTTTTATAACACACATATATATAATGTGC [CACACA_site4767]	6.52
TACATGTATAAATAAGCACACATGTGGATATGTACA [CACACA_site93]	6.64
ACTTATATATTATGTTGTCCGTCCATTCTCTTTATC [XGTACX_site3769]	6.96
AATTTTATTTAATTTTTTTGGGAAATGATAAAATTT [CACACA_negctrl_site934]	5.8
ACGTGTGATTATAATTGTACTTTAATGTAAGAATGA [XGTACX_site1109]	6.53
ATATATATATATATATGTACTTATAATAATATTCAA [XGTACX_site2593]	9.32
ATCTTTCCTATTTGTAGTACAAAAAAAAAAAAAAAA [XGTACX_site5485]	6.37
TATTGTCTATAATAAACACACAATATTAAAAATATA [CACACA_site6624]	6.19

Sequence	gcPBM binding intensity (ln)
TTAAATGATGTAAACACACACATATACATTATTATA [CACACA_site3162]	6.53
TTTTATAAGGTGAAAAGTACATATAACTTATTTTAC [XGTACX_site5572]	6.39
AAAAAAAAAAAAAAAACACACATACATACATACATA [CACACA_site6125]	6.8
AGAAAAGTGATATATACACACTTATATTTATTTATA [CACACA_site7350]	6.26
TTTTTTTTTTTTTTTGCACACACCATATTTATAGAA [CACACA_site3310]	8.81
TATTGTTACTTTATATGTACTAATTAAACATATACA [XGTACX_site6363]	6.5
TTGTATTATATTGTATTATGTTTAAATGAAAAAAAA [CACACA_negctrl_site662]	6.46
AAAAAAAAAAAAAAAAGTACACAAATTTTAAAAATT [XGTACX_site3006]	6.33
AAAAATACCTTATATATACACACTATGTTTTTCTTT [CACACA_site1192]	6.59
AAATATTAGTAACACAGACACACAAAAAAAAAAAAA [CACACA_site2175]	6.17
CAAAAGAAGGTAAACACACACACACGCATACAAAAA [CACACA_site7724]	6.78
ATTTCTCTATCGTAATGTACATAAAAAATGAAAAAA [XGTACX_site1201]	6.8
CAAAACCTTATATGTACACACATATACATCACCCTT [CACACA_site3170]	6.6
ATAGAATAAAACTATACACACCTATATTTAAACATA [CACACA_site5106]	6.62
TGTTTATTTTTAAAAAGTACATATTTAAAAAACTTC [XGTACX_site271]	6.26
TTTTCTAAATAAATAGTGCATTTATTATATATACAT [GTGCAC_site9766]	8.43
TGATCAGATAGACACACACACAAAAAAAAAAAAAAA [CACACA_site7805]	6.4
AAATGAATAAATAAGACACACACGAAAATAAGTAAA [CACACA_site71]	7.1
AAATATATATATATATATATATATATATATATATAT [CACACA_negctrl_site677]	9.37
AATTACTACATAAATACATGCATAATTATATATATA [TGCATGCA_site783]	7.15
TATCTCTTCATATTGTGTACATATTTTTATTTATTG [XGTACX_site4038]	7.33
ATAAAATATAAAAATTGTACGATAATAATAGTAGGA [XGTACX_site8951]	6.48

Sequence	gcPBM binding intensity (ln)
AACACTTCTTATTTATGTACTTAATTCCCAACGGAA [XGTACX_site4818]	6.89
CATAATACATATAACACACACAATTATACATAAAAT [CACACA_site3233]	6.82
AAAAAAAAAAAACACACACACACACCCAAATATATA [CACACA_site150]	6.84
TATATTAAACTTTGCACACATAATTTAACTACAAAG [CACACA_site3441]	10.5
AATCATTTATTGATGGTGCAATATACCATCTAATGA [GTGCAC_site9440]	9.92
AAAAAAAAAAAAAAAAAAAAAAAAAAAATACGAAAG [GTGCAC_negctrl_site729]	7.21
ATATATATATATATATGTACTTAAAAAATATATACA [XGTACX_site8952]	9.4
TATTTTTTTTGTGTGTGTCCTCATGTAATACTGCAA [XGTACX_site1380]	7.01
CTTTTTAATTAATACACACACACACGGATATAAATA [CACACA_site7145]	7.07
ATATTATTTATGTATGCATGCGGCGAAATGGGCTTG [TGCATGCA_site28]	6.74
AATGGGTTACACATATGTACATAAAATATAAAAAAT [XGTACX_site3440]	6.96
TCTCATTTTCCCTAAAAAAAAAAATAAATAAAAATA [TGCATGCA_negctrl_site580]	6.5
TTTTTCCATATTGTAGCATGCAGTATATATATCATG [TGCATGCA_site530]	6.86
TAAAAATGGAAACACACACACATAAATATATTTTAT [CACACA_site2513]	6.97
ATTTCTATAAAAATAATCTACATTTTTTTTTTTTTT [CACACA_negctrl_site917]	6.03
TAACCACAATTTTAATGTACATATATATTTATATAT [XGTACX_site8968]	6.42
TATATACATATATATATATGTATAGATAGATACATT [CACACA_negctrl_site1511]	6.5
AATATTTTACAATACACATGCAAATAATATTCTAAA [TGCATGCA_site618]	6.92
TTTTGAAAAAATTTTTATAAAAGAATAAAATTATTA [XGTACX_negctrl_site570]	6.06
TTTTTTTACAACATTACACACAAATATTCTGGGTTA [CACACA_site3755]	6.99
AATATTATATTAAAATGTACAAAAATGAATTACTTT [XGTACX_site1473]	6.47
CAATGCAAGGCTTAAAAAAATGGGCATATTATATAT [GTGCAC_negctrl_site304]	6.38

Sequence	gcPBM binding intensity (ln)
ATTTATATATAAATGTGTACATATATATATATAAAC [XGTACX_site7592]	6.78
ATTGTAAGTAAACACACACACATATATCTGTATTTA [CACACA_site4542]	6.58
TACCATGTTCAAATTACACACATATAATGCAATATA [CACACA_site7034]	7.36
CTGAAATTAACAAAAGTGCATAAAAATAAAAAATAT [GTGCAC_site9652]	8.5
TCACATTTTGGACACGTGCACATATATTTGATACAT	9.58
AATATTTCTCATTTTGTGCACTGAAAAATGTAATAT	9.66
TCATATATCCTTATCACACATATAATAAATTCCCTT [CACACA_site4457]	6.59
TTCTTTGCTTTTCAAACACACAAAAGTTATTATAGT [CACACA_site6390]	6.44
ATATGATTATTATTATATAAATTATAAAGTCTAATA [GTGCAC_negctrl_site586]	6.08
GTTCTACAAGCCACTGCATGCTGATATAGAATAAAT [TGCATGCA_site138]	6.47
AAAAAGGAAATTTACACACACATATAATATACATTA [CACACA_site3296]	6.59
ATTTACCAGACCATATGTACATACATAAAACACACA [XGTACX_site3788]	7.07
GGAATTGAAAAATCAGCACACACACTAATACATACA [CACACA_site9059]	6.78
AATAATTGTTAAAGGTGTACAATACCTACATAAGAA [XGTACX_site4215]	7.04
AAATGGCAATAATGGACACACAAATGTTGTTATATA [CACACA_site2819]	6.33
GAATAATTAAAAGGTAGTACAAAGGTTATCAAAAGG [XGTACX_site8496]	6.95
GATATGATTATGTGATGGTGTTTTTGATAGATATTT [CACACA_negctrl_site1445]	6.77
AGAAAACCGAAAGAGACACACAACATGTCGATTTAG [CACACA_site3764]	6.17
TTGTTCTTTTGAAAGGTGCAAAAGAAAAATAATTAA	9.53
CTTTTTTTTTTGGGGGTGCATGCAAGACATATATTT [GTGCAC_site9660]	9.02
ACATAACTTATATATACACACAATACAAATATATAT [CACACA_site2774]	7.05
ATAATTTCTATTTCACAAAAAAAAAAAAAAAAAAAA [CACACA_negctrl_site1012]	6.05
